# The campaign covered roughly 110,000 compounds. About 230 (0.21%) showed an effect of 50% or more. The list shows a part of the results.
# Biological target: DPAP1 (Plasmodium falciparum, UniProt Q8IIJ9)
# Assay: primary screen, percent inhibition; read by cleavage of a fluorogenic dipeptide substrate; higher = more effect of the substance
# Set-up: species or system P. falciparum D10 trophozoite lysates; single well
# 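Also: 30 min substrate incubation versus DMSO and 10 µM JCP410 controls.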
# DPAP1, sequence (Q8IIJ9 whole entry, looked up): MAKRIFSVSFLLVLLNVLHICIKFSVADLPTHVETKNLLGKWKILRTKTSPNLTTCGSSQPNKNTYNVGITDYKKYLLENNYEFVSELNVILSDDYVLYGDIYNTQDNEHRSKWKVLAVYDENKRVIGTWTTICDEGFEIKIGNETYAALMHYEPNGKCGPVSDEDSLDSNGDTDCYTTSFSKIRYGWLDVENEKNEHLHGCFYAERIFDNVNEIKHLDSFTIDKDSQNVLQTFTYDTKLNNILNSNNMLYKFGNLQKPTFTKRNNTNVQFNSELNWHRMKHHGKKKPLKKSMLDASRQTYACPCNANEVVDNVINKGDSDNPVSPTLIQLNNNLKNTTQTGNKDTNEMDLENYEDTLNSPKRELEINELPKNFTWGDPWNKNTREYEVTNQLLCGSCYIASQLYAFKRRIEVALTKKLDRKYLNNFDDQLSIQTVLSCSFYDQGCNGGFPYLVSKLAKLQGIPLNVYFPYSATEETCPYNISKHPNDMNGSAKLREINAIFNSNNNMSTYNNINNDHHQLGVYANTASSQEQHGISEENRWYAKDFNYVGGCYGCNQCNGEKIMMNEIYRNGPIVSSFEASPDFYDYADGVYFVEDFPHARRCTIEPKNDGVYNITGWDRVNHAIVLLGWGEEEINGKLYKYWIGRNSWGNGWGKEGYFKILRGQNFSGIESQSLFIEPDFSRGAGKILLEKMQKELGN
row,SMILES,% Inhibition @ 10 uM [%]
1,Cc1cc(C)c2c(n1)sc1c(N3CCN(CCO)CC3)ncnc12,-5.41
2,COc1ccccc1/C=C/C=C1\N=C(c2ccccc2F)OC1=O,1.64
3,COc1ccc(C(=O)Nc2nnc(Cc3c[nH]c4ccccc34)s2)cc1,-6.17
4,C=CCn1c2ccccc2n2nc(C)nc12,6.54
5,CSc1ccc(CN2CCN(c3ccccc3)CC2)cc1,-6.47
6,O=C(c1cc2cc(Br)ccc2oc1=O)N1CCCCCC1,1.08
7,Cc1ccc2c(CNCc3ccc(C)o3)c(C(=O)O)n(Cc3cccc(F)c3)c2c1,3.47
8,CCOC(=O)c1sc(N)c(C(=O)OC)c1C,4.26
9,COc1ccc(NC(=O)c2ccc(C(C)(C)C)cc2)cc1OC,-2.67
10,NC(=O)CC(c1ccccc1)c1ccco1 (stereo not drawn),3.17
11,CCc1cc(OC)c(OC)cc1C(C)NC(=O)c1ccccc1 (stereo not drawn),-1.63
12,COc1cc(C2C(C(=O)c3ccc(F)cc3)=C(O)C(=O)N2CCCCCC(=O)O)ccc1O (stereo not drawn),-3.75
13,COc1ccc(-c2c(C)nn3c(O)cc(Cc4ccccc4)nc23)cc1,6.66
14,Fc1ccc(Oc2cc(-n3cncn3)nc(-c3ccccc3)n2)cc1,-3.71
15,Cc1cc(C)cc(-n2cnc3cc(C(=O)NCc4cccnc4)ccc32)c1,-7.57
16,O=C(Nc1ccc(Cl)cc1)Nc1cc(C(F)(F)F)ccc1Cl,7.35
17,C=CCOc1ccc(C2N3CC4(C)CN2CC(C)(C3)C4)cc1 (stereo not drawn),-0.0735
18,C=CCOc1c(Cl)cc(CNc2nccs2)cc1OC,1.84
19,COc1ccccc1N1C(=O)C2C3CCC(C3)C2C1=O (stereo not drawn),-5.96
20,CC(C)c1ccc(/C=C(\C#N)C(=O)NCc2cccnc2)cc1,10.8
21,CCn1c(=O)/c(=C2/Sc3ccccc3N2C)s/c1=C1/C(=O)N(c2ccccc2)N=C1C,2.08
22,CC1CN(Cc2ccccc2Br)CC(C)O1 (stereo not drawn),2.41
23,O=C(c1ccc(F)cc1)N1CCN(Cc2ccccc2F)CC1,-11.5
24,CC1CCN(S(=O)(=O)c2ccc(NC(=O)c3ccccc3)cc2)CC1,-2.66
25,CCc1sc(C2C(C#N)=C(N)Oc3[nH]nc(C)c32)cc1COc1ccccc1Cl (stereo not drawn),3.05
26,Sc1nnc(-c2ccccc2)n1-c1ccccc1,2.49

row,SMILES,% Inhibition @ 10 uM [%]
1,Cc1ccc2occ(/C=C/C(=O)O)c(=O)c2c1,-2.37
2,O=C(NCC1CCCO1)c1cc(-c2ccccc2F)no1 (stereo not drawn),-4.49
3,O=C(CSC1CC(=O)N(c2cccc(Br)c2)C1=O)Nc1ccc(Cl)cc1 (stereo not drawn),14.2
4,CCN(CC)CCN1C(=O)C(O)=C(C(=O)c2ccc(F)cc2)C1c1cccs1 (stereo not drawn),-9.12
5,Cc1cc(NC(=O)Cn2ncc3c4ccccc4nc-3c2O)no1,1.9
6,CCC(=O)c1cn(CC(=O)N2CCCC2)c2ccccc12,-5
7,C=CCSc1nnc(-c2ccc(Br)cc2)o1,4.35
8,CCOc1ccc(Sc2cc(C(=O)N3CCCC3)c3ccccc3n2)cc1,1.62
9,COc1cc(C(=O)/N=c2\sc(C)c(-c3ccc(C)cc3)n2C)cc(OC)c1OC,-6.05
10,O=C(Nc1ccccc1)c1nc2ccccc2s1,5.39
11,Cn1c(=O)[nH]c(=O)c2c1nc1n2CCS1,5.54
12,O=C(NC(Cc1ccccc1)C(=O)NCc1ccccn1)c1ccccc1 (stereo not drawn),-0.173
13,Cc1sc(NC(=O)COc2ccc(C(C)(C)C)cc2)c(C(N)=O)c1C,-4.54
14,CC(C)CCNC(=O)Cn1c2c(c(-c3ccccc3Cl)cc1=O)CCC2,5.47
15,CCN(CC)CCNC(=O)/C(=C/c1cn(CC)c2ccccc12)NC(=O)c1ccc(C)cc1,-0.0235
16,CCC(C(=O)NC1CCCC1)n1c(SCc2ccc(F)cc2)nc2ccncc21 (stereo not drawn),5.73
17,Cc1ccc2c(CNCc3ccc(C)o3)c(C(=O)O)[nH]c2c1,-4.46
18,Cn1c(=N)n(CC(=O)c2ccc(Cl)cc2)c2ccccc21,-6.65
19,COc1ccccc1Nc1[nH]nc(C)c1[N+](=O)[O-],6.43
20,Cc1ccc(CNC(=O)Cn2ncc3ccsc3c2=O)cc1,-6.52
21,COc1cccc(C(=O)C2=C(O)C(=O)N(CCCn3ccnc3)C2c2cccs2)c1 (stereo not drawn),-1.44
22,O=c1cccc2n1C[C@H]1C[C@@H]2CN(Cc2ccccc2O)C1,-4.55
23,CCOc1ccc(NC(=O)CNS(=O)(=O)c2ccccc2)cc1,2.6
24,COc1ccc(C(=O)Nc2nc(C)c3cc4c(cc3n2)OCO4)cc1,-4.42
25,Cc1c(C(=O)O)nn(-c2cccc(C(F)(F)F)c2)c(=O)c1C#N,2.69
26,O=C1NC(c2ccc(Br)cc2)=N/C1=C/c1ccccc1F,-0.591

row,SMILES,% Inhibition @ 10 uM [%]
1,O=C(NCc1ccc2c(c1)OCO2)C1=Cc2sc3c(c2CS1)CCCC3,-1.08
2,C/C(=N\N=C(/C)c1cccnc1)c1cccnc1,-5.6
3,Cc1cc(O)c(C2=Nc3ccccc3SC(c3ccccn3)C2)c(=O)o1 (stereo not drawn),-3.62
4,COc1ccc2c(CNC3CCC(C)CC3)c(C(=O)O)n(Cc3ccccc3F)c2c1 (stereo not drawn),-1.97
5,CCOC(=O)c1cc(C)n(CC2CCC(C(=O)Nc3ccc(C)cn3)CC2)c1C (stereo not drawn),-0.416
6,CN(C)S(=O)(=O)n1cc(/C=C(\NC(=O)c2ccccc2Cl)C(=O)NCCO)c2ccccc21,-3.52
7,CCc1nnc(NC(=O)CSc2ccc3nnc(-c4ccc(OC)cc4)n3n2)s1,-1.44
8,COc1ccc(C2C3=C(O)CCCC3=Nc3nc(SC)nn32)c(OC)c1 (stereo not drawn),1.73
9,CC(C)CC(NC(=O)C1CCCCC1)C(=O)NCCc1ccccc1 (stereo not drawn),-2.49
10,OC1CC(c2ccccc2)NC2(CCCC2)C1 (stereo not drawn),3.18
11,c1ccc(C2=NNC(c3ccccc3)=NN2)cc1,3.74
12,COc1ccc(Cn2c(C(=O)O)c(CNCc3ccc(OC(C)C)cc3)c3ccccc32)cc1,1.73
13,O=C(CCN1C(=O)C2C3C=CC(C3)C2C1=O)Nc1ccccc1C(F)(F)F (stereo not drawn),0.583
14,O=C(O)Cn1nc(-c2ccccc2)ccc1=O,-0.256
15,Cc1ccc(OCC(=O)Nc2ccc(Br)c(Cl)c2)cc1,-7.25
16,CN1CCN(C(=O)c2ccc(S(=O)(=O)N3CCCCC3)cc2)CC1,-3.63
17,NC(=O)c1cc2c(nc1O)CCc1c-2[nH]c2ccccc12,7.92
18,Clc1ccc(OCCSCc2nc3ccccc3[nH]2)cc1,9.18
19,O=C1c2ccccc2NC(c2ccc(O)cc2)N1Cc1ccco1 (stereo not drawn),1.35
20,CCN1CCC(N2CCN(c3cccc(Cl)c3)CC2)CC1,-0.0908
21,CC1=C(C(=O)Nc2cccc(C)n2)C(c2cccc(Br)c2)C2=C(O)CCCC2=N1 (stereo not drawn),2.85
22,Cc1cccc(C(=O)N2CCN(c3ccccc3)CC2)c1,-5.26
23,COc1ccc(CN2CCN(C/C=C/c3ccccc3)CC2)cc1C,6.25
24,COC(=O)C(Cc1ccc(O)cc1)NC(=O)c1ccco1 (stereo not drawn),5.54
25,CCCOc1ccc(C2C(C(=O)c3ccc4c(c3)CC(C)O4)=C(O)C(=O)N2CC2CCCO2)cc1 (stereo not drawn),-13.5
26,COc1cccc(CNC(=O)c2ccc(CS(=O)c3ccccc3Cl)o2)c1 (stereo not drawn),-0.434

row,SMILES,% Inhibition @ 10 uM [%]
1,CC(C)(C)c1cc(C(c2ccccn2)N2CCN(CCO)CC2)cc(C(C)(C)C)c1O (stereo not drawn),-1.52
2,NC(=O)C1CCCN(Cc2cc(Br)cs2)C1 (stereo not drawn),2.1
3,Cc1ccccc1S(=O)(=O)Cc1ccc(C(=O)NCCC(C)C)o1,0.458
4,O=C(Cc1ccccc1)Nc1ccc(S(=O)(=O)N2CCCCC2)cc1,0.907
5,Fc1ccc(CN2CCN(c3ncccn3)CC2)c(F)c1,-3.72
6,CC1=CC(=C2C(=O)NC(=O)NC2=O)C=C(C(F)(F)F)N1CCO,-1.86
7,COCCNC(=O)c1cc(-c2ccccn2)nc2ccc(S(=O)(=O)N3CCC(C)CC3)cc12,2.35
8,O=C(CCc1nnc2n(CCc3ccccc3)c(=O)c3ccccc3n12)N1CCOCC1,0.981
9,O=C(CC1Nc2ccccc2NC1=O)NCc1ccccc1 (stereo not drawn),8.63
10,CC(C)CCNC(=O)CCCc1nnc2n(C)c(=O)c3sccc3n12,0.0603
11,CCC(C)(C)C1CCc2c(sc(NC(=O)c3cccs3)c2C(N)=O)C1 (stereo not drawn),-3.49
12,CCCOc1ccccc1C1CC(=O)NC2=C1C(=O)CC(C)(C)C2 (stereo not drawn),-5.2
13,COc1ccccc1CNS(=O)(=O)c1cccs1,-2.65
14,CC(O)/C=C/c1ccc2ccccc2n1 (stereo not drawn),4.51
15,COc1ccccc1N1C(=O)C2C3CC(c4ccccc4)C(C3)C2C1=O (stereo not drawn),-7.96
16,Cc1cc(C)c(C#N)c(Nc2cccc(C(F)(F)F)c2)n1,1.61
17,Cn1c(=O)c2c(ncn2CC(=O)N2CCN(c3cccc(Cl)c3)CC2)n(C)c1=O,-1.84
18,Cc1cc2c(c(C)c1C)CC(C)(C)NC2=O,-0.703
19,O=S(=O)(Nc1ccc(Cl)cc1)c1ccc(-c2ccccc2)cc1,-2.03
20,CCN(CC)CCCN(C)C(=O)c1nc(-c2ccc(Cl)cc2)n2c1CCCCC2,4.39
21,Cn1c(C(=O)NCc2cccnc2)cc2oc3ccccc3c21,-0.281
22,CCS(=O)(=O)c1nc(S(=O)(=O)c2ccc(C)cc2)c(N(C)Cc2ccccc2)s1,-2.25
23,CCn1cc(C2=NOC(C(=O)O)C2)c(C)n1 (stereo not drawn),0.291
24,Cn1cc(Br)c(C(=O)NC23CC4CC(CC(C4)C2)C3)n1,2.13

# From publication PMC6919601, “Identification of Plasmodium dipeptidyl aminopeptidase allosteric inhibitors by high throughput screening” (PLoS ONE, 2019)
